Laboratory results published in patent US7652041B2, “Cinnamide and hydrocinnamide derivatives with kinase inhibitory activity” (Millennium Pharmaceuticals, Inc., priority 2005, dated 2010).

System: A375 cells
Experiment: Phospho-ERK ELISA assay
Type: cell-based
Conditions: Homo sapiens, A-375, 3 hours with inhibitor, anti-p44/42MAPK antibody ELISA, normalized for protein content
In short: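 A375 cells treated with Raf kinase inhibitors for 3 hours at 37° C, then fixed, permeabilised with methanol and immunostained with anti-p44/42 MAPK antibody plus HRP secondary. TMB colour read as optical density at 650 nm, normalised to well protein content by BCA assay.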

Structure (SMILES) | IC50
CC(C)(C)c1ccc(NC(=O)CCc2cccc(Oc3ccnc(C4=NCCN4)c3)c2)cc1 [Compound A-161, N-(4-tert-butylphenyl)-3-(3-{[2-(4,5-dihydro-1H-imidazol-2-yl)pyridin-4-yl]oxy}phenyl)propanamide] | 1 to 10 µM
CC1CNC(c2cc(Oc3ccc(CCC(=O)Nc4ccc(Cl)c(C(F)(F)F)c4)cc3)ccn2)=N1 (stereo not shown) [Compound A-99, N-[4-chloro-3-(trifluoromethyl)phenyl]-3-(4-{[2-(4-methyl-4,5-dihydro-1H-imidazol-2-yl)pyridin-4-yl]oxy}phenyl)propanamide] | 1 to 10 µM
O=C(/C=C/c1cccc(Oc2ccnc(C3=NCCN3)c2)c1)Nc1cc(F)cc(C(F)(F)F)c1 [Compound B-9, (2E)-3-(3-{[2-(4,5-dihydro-1H-imidazol-2-yl)pyridin-4-yl]oxy}phenyl)-N-[3-fluoro-5-(trifluoromethyl)phenyl]acrylamide] | ≤ 1 µM
COc1ccc(C(C)(C)C)cc1NC(=O)CCc1cccc(Oc2ccnc(C3=NCCN3)c2)c1 [Compound A-219, N-(5-tert-butyl-2-methoxyphenyl)-3-(3-{[2-(4,5-dihydro-1H-imidazol-2-yl)pyridin-4-yl]oxy}phenyl)propanamide] | ≤ 1 µM
C/C(=C\c1cccc(Oc2ccnc(C3=NCCN3)c2)c1)C(=O)Nc1ccc(Cl)c(C(F)(F)F)c1 [Compound B-12, (E)-N-(4-Chloro-3-(trifluoromethyl)phenyl)-3-(3-(2-(4,5-dihydro-1H-imidazol-2-yl)pyridine-4-yloxy)phenyl)-2-methylacrylamide] | ≤ 1 µM
COC(=O)CCc1ccc(NC(=O)CCc2cccc(Oc3ccnc(C4=NCCN4)c3)c2)cc1C(F)(F)F [Compound A-234, methyl 3-[4-{[3-(3-{[2-(4,5-dihydro-1H-imidazol-2-yl)pyridin-4-yl]oxy}phenyl)propanoyl]amino}-2-(trifluoromethyl)phenyl]propanoate] | 10 to 25 µM
COC(=O)c1ccc(NC(=O)CCc2cccc(Oc3ccnc(C4=NCCN4)c3)c2)cc1C(F)(F)F [Compound A-216, methyl 4-{[3-(3-{[2-(4,5-dihydro-1H-imidazol-2-yl)pyridin-4-yl]oxy}phenyl)propanoyl]amino}-2-(trifluoromethyl)benzoate] | 1 to 10 µM
CN(C)CCNC(=O)C1CNC(c2cc(Oc3cccc(CCC(=O)Nc4ccc(Cl)c(C(F)(F)F)c4)c3)ccn2)=N1 (stereo not shown) [Compound A-237, 2-{4-[3-(3-{[4-chloro-3-(trifluoromethyl)phenyl]amino}-3-oxopropyl)phenoxy]pyridin-2-yl}-N-[2-(dimethylamino)ethyl]-4,5-dihydro-1H-imidazole-4-carboxamide] | 1 to 10 µM
O=C(CCc1cccc(Oc2ccnc(C3=NC(CO)CN3)c2)c1)Nc1ccc(Cl)c(C(F)(F)F)c1 (stereo not shown) [Compound A-178, N-[4-chloro-3-(trifluoromethyl)phenyl]-3-[3-({2-[4-(hydroxymethyl)-4,5-dihydro-1H-imidazol-2-yl]pyridin-4-yl}oxy)phenyl]propanamide] | 1 to 10 µM
CC(C)(C)c1cc(NC(=O)CCc2cccc(Oc3ccnc(C4=NCCN4)c3)c2)ccc1Cl [Compound A-61, N-(3-tert-butyl-4-chlorophenyl)-3-(3-{[2-(4,5-dihydro-1H-imidazol-2-yl)pyridin-4-yl]oxy}phenyl)propanamide] | 1 to 10 µM
O=C(CCc1cccc(Oc2ccnc(C3=NCCN3)c2)c1)Nc1cc(C(F)(F)F)c(Cl)cc1O [Compound A-218, N-[4-chloro-2-hydroxy-5-(trifluoromethyl)phenyl]-3-(3-{[2-(4,5-dihydro-1H-imidazol-2-yl)pyridin-4-yl]oxy}phenyl)propanamide] | 1 to 10 µM
Cc1cc(CCC(=O)Nc2ccc(Cl)c(C(F)(F)F)c2)ccc1Oc1ccnc(C2=NCCN2)c1 [Compound A-62, N-[4-chloro-3-(trifluoromethyl)phenyl]-3-(4-{[2-(4,5-dihydro-1H-imidazol-2-yl)pyridin-4-yl]oxy}-3-methylphenyl)propanamide] | 1 to 10 µM
O=C(CCc1cccc(Oc2ccnc(C3=NCCN3)c2)c1)Nc1cccc(Cl)c1 [Compound A-249, N-(3-chlorophenyl)-3-(3-{[2-(4,5-dihydro-1H-imidazol-2-yl)pyridin-4-yl]oxy}phenyl)propanamide] | 10 to 25 µM
CC(CC(=O)Nc1ccc(Cl)c(C(F)(F)F)c1)c1cccc(Oc2ccnc(C3=NCCN3)c2)c1 (stereo not shown) [Compound A-132, N-[4-chloro-3-(trifluoromethyl)phenyl]-3-(3-{[2-(4,5-dihydro-1H-imidazol-2-yl)pyridin-4-yl]oxy}phenyl)butanamide] | 1 to 10 µM
CCN1CCN(CC(=O)Nc2cc(Oc3cccc(CCC(=O)Nc4ccc(Cl)c(C(F)(F)F)c4)c3)ccn2)CC1 [Compound A-192, N-[4-chloro-3-(trifluoromethyl)phenyl]-3-{3-[(2-{[(4-ethylpiperazin-1-yl)acetyl]amino}pyridin-4-yl)oxy]phenyl}propanamide] | 1 to 10 µM
N=C(NCc1cc(Oc2cccc(CCC(=O)Nc3ccc(Cl)c(C(F)(F)F)c3)c2)ccn1)c1ccccc1 [Compound A-153, N-[4-chloro-3-(trifluoromethyl)phenyl]-3-(3-{[2-({[imino(phenyl)methyl]amino}methyl)pyridin-4-yl]oxy}phenyl)propanamide] | 1 to 10 µM

Structure (SMILES) | IC50
O=C(CCc1cccc(Oc2ccnc(C3=NCCN3)c2)c1)Nc1cc(C(F)(F)F)ccc1F [Compound A-103, 3-(3-{[2-(4,5-dihydro-1H-imidazol-2-yl)pyridin-4-yl]oxy}phenyl)-N-[2-fluoro-5-(trifluoromethyl)phenyl]propanamide] | 1 to 10 µM
CC(C)(C)c1cccc(NC(=O)/C(=C/c2cccc(Oc3ccnc(C4=NCCN4)c3)c2)CO)c1 [Compound B-140, (E)-N-(3-tert-butylphenyl)-3-(3-(2-(4,5-dihydro-1H-imidazol-2-yl)pyridin-4-yloxy)phenyl)-2-(hydroxymethyl)acrylamide] | ≤ 1 µM
COCCNC(=O)c1cc(NC(=O)CCc2cccc(Oc3ccnc(C4=NCCN4)c3)c2)cc(C(F)(F)F)c1 [Compound A-191, 3-{[3-(3-{[2-(4,5-dihydro-1H-imidazol-2-yl)pyridin-4-yl]oxy}phenyl)propanoyl]amino}-N-(2-methoxyethyl)-5-(trifluoromethyl)benzamide] | 10 to 25 µM
CNC(=O)C1CNC(c2cc(Oc3cccc(CCC(=O)Nc4ccc(Cl)c(C(F)(F)F)c4)c3)ccn2)=N1 (stereo not shown) [Compound A-259, 2-{4-[3-(3-{[4-chloro-3-(trifluoromethyl)phenyl]amino}-3-oxopropyl)phenoxy]pyridin-2-yl}-N-methyl-4,5-dihydro-1H-imidazole-4-carboxamide] | 10 to 25 µM
COc1cc(NC(=O)CCc2cccc(Oc3ccnc(C4=NCCN4)c3)c2)cc(C(F)(F)F)c1 [Compound A-209, 3-(3-{[2-(4,5-dihydro-1H-imidazol-2-yl)pyridin-4-yl]oxy}phenyl)-N-[3-methoxy-5-(trifluoromethyl)phenyl]propanamide] | 1 to 10 µM
CN(C)CCOc1cc(NC(=O)CCc2cccc(Oc3ccnc(C4=NCCN4)c3)c2)cc(C(F)(F)F)c1 [Compound A-129, 3-(3-{[2-(4,5-dihydro-1H-imidazol-2-yl)pyridin-4-yl]oxy}phenyl)-N-[3-[2-(dimethylamino)ethoxy]-5-(trifluoromethyl)phenyl]propanamide] | 1 to 10 µM
O=C(/C=C/c1cccc(Oc2ccnc(C3=NCCN3)c2)c1)Nc1cccc(Cl)c1 [Compound B-10, (2E)-N-(3-chlorophenyl)-3-(3-{[2-(4,5-dihydro-1H-imidazol-2-yl)pyridin-4-yl]oxy}phenyl)acrylamide] | 1 to 10 µM
CN(C)CCNC(=O)c1cc(Oc2ccc(CCC(=O)Nc3ccc(Cl)c(C(F)(F)F)c3)cc2)ccn1 [Compound A-24, 4-[4-(3-{[4-chloro-3-(trifluoromethyl)phenyl]amino}-3-oxopropyl)phenoxy]-N-[2-(dimethylamino)ethyl]pyridine-2-carboxamide] | 10 to 25 µM
CN1CCN=C1c1cc(Oc2cccc(CCC(=O)Nc3cccc(C(C)(C)C)c3)c2)ccn1 [Compound A-154, N-(3-tert-butylphenyl)-3-(3-{[2-(1-methyl-4,5-dihydro-1H-imidazol-2-yl)pyridin-4-yl]oxy}phenyl)propanamide] | 1 to 10 µM
CN(C)CC#Cc1cc(NC(=O)CCc2cccc(Oc3ccnc(C4=NCCN4)c3)c2)cc(C(F)(F)F)c1 [Compound A-193, 3-(3-{[2-(4,5-dihydro-1H-imidazol-2-yl)pyridin-4-yl]oxy}phenyl)-N-[3-[3-(dimethylamino)prop-1-yn-1-yl]-5-(trifluoromethyl)phenyl]propanamide] | 1 to 10 µM
CC(=O)Nc1cc(Oc2cccc(CCC(=O)Nc3ccc(Cl)c(C(F)(F)F)c3)c2)ccn1 [Compound A-183, 3-(3-{[2-(acetylamino)pyridin-4-yl]oxy}phenyl)-N-[4-chloro-3-(trifluoromethyl)phenyl]propanamide] | 1 to 10 µM
O=C(CCc1cccc(Oc2ccnc(C3=NCCN3)c2)c1)Nc1cccc(C(F)(F)F)c1F [Compound A-203, 3-(3-{[2-(4,5-dihydro-1H-imidazol-2-yl)pyridin-4-yl]oxy}phenyl)-N-[2-fluoro-3-(trifluoromethyl)phenyl]propanamide] | 10 to 25 µM
C[C@H]1CNC(c2cc(Oc3cccc(CCC(=O)Nc4ccc(Cl)c(C(F)(F)F)c4)c3)ccn2)=N1 [Compound A-122, N-[4-chloro-3-(trifluoromethyl)phenyl]-3-[3-({2-[(4S)-4-methyl-4,5-dihydro-1H-imidazol-2-yl]pyridin-4-yl}oxy)phenyl]propanamide] | 1 to 10 µM
N=C(N)c1cc(Oc2ccc(CCC(=O)Nc3ccc(Cl)c(C(F)(F)F)c3)cc2)ccn1 [Compound A-245, 3-[4-({2-[amino(imino)methyl]pyridin-4-yl}oxy)phenyl]-N-[4-chloro-3-(trifluoromethyl)phenyl]propanamide] | 1 to 10 µM
O=C(CCc1ccc(Oc2ccnc(C3=NCCCN3)c2)cc1)Nc1ccc(Cl)c(C(F)(F)F)c1 [Compound A-35, N-[4-chloro-3-(trifluoromethyl)pheny]-3-(4-{[2-(1,4,5,6-tetrahydropyrimidin-2-yl)pyridin-4-yl]oxy}phenyl)propanamide] | 1 to 10 µM
